The results in this text go back to PubChem BioAssay AID360 (National Center for Advancing Translational Sciences (NCATS), 2006).

The structures appear in SMILES notation. Among all 48,000 compounds or so, about 550 (1.1%) were called active. Another 4% or so got no clear call; they are omitted. Rule as the data show it: active = potency below about 15 µM; inconclusive = mostly about 16 µM to 33 µM; inactive = weaker than that. Some of the results follow.
Potency is read from the fitted curve at half-maximal effect.

This test addresses Lysosomal acid glucosylceramidase (Homo sapiens) (UniProt P04062). Kind of test: Glucocerebrosidase.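 Also: the screen sought inhibitors.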 As to conditions: purified enzyme, resorufin glucoside fluorescence (screen aimed at inhibitors), 20 min. An outline of the steps: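 Normal human glucocerebrosidase (0.2 nM final) was assayed with resorufin β-D-glucopyranoside (30 uM final) in 50mM citric acid/KH2PO4, 10mM sodium taurocholate, 0.01% tween-20, pH 5.9. Compounds were titrated; fluorescence (Ex 548, Em 600) read after 20 min at RT.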
Sequence of UniProt P04062 (P04062 whole entry, looked up): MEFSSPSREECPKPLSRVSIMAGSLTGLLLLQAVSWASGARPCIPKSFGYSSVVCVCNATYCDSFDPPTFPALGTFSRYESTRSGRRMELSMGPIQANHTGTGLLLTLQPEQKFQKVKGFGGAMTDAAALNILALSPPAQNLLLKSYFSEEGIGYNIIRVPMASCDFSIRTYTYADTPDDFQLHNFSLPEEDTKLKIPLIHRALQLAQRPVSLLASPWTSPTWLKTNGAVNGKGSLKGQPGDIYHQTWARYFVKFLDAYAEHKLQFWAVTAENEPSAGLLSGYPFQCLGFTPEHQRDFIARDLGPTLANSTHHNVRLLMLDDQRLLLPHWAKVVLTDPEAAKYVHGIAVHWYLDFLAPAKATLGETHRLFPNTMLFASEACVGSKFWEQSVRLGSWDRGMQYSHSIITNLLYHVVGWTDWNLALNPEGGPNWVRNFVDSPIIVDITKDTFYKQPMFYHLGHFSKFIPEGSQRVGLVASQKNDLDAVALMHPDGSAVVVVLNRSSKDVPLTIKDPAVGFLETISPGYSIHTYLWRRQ
On to `O=C(CSc1ccc2c(c1)OCCO2)NC(=O)NC1CCCC1`, for which the Potency was inactive: > 76.9 µM.

Take `CCn1cc(C(=O)N2CCCc3ccccc32)c2cc(OC)c(OC)cc2c1=O`: the Potency was inactive: > 76.9 µM.

Take `CCOCCCNC(=O)c1c[nH]c2ccc(S(=O)(=O)Nc3cccc(OC)c3)cc2c1=O`: the Potency is inactive: > 76.9 µM.

As for `CCCc1cc(=O)n2c(nc3ccccc32)[nH]1`, the Potency is inactive: > 76.9 µM.

Consider `CCc1ccc(S(=O)(=O)NCc2csc(-c3ccccc3)n2)s1`, for which the Potency is inactive: > 76.9 µM.

Turning to `Cc1cc(NC(=O)c2cc3n(n2)C(C(F)(F)F)CC(c2ccc(Cl)c(Cl)c2)N3)no1` (configuration not stated), the Potency is inactive: > 76.9 µM.

With `CC(=O)C(C)Oc1cc(C)cc2oc(=O)c(C)c(C)c12` (configuration not stated), the Potency is inactive: > 76.9 µM.

With `CC1Cc2ccccc2N1c1ncnc2c1nnn2Cc1ccccc1` (configuration not stated), the Potency was inactive: > 76.9 µM.

For `CN(C(=O)c1cnccn1)c1nnc(-c2cccnc2)s1`, the Potency is inactive: > 76.9 µM.

Turning to `COc1ccc(OC)c(CN2C(=O)CCC2(C)C(=O)NC2CCCCCC2)c1` (configuration not stated), the Potency was inactive: > 76.9 µM.

As for `OC(COc1c(F)cc(Br)cc1F)CN1CCN(c2ccc(F)cc2)CC1` (configuration not stated), the Potency was inactive: > 76.9 µM.

Regarding `CC(C)CCOc1ccc(C(=O)O)cc1`, the Potency is inactive: > 76.9 µM.

With `COCCNC(=O)c1nn(-c2cc(OC)cc(OC)c2)c(=O)c2ccccc12`, the Potency is inactive: > 76.9 µM.

Regarding `COc1ccc(C)cc1-n1nnnc1SCc1cc(=O)n2cc(C)ccc2n1`, the Potency was inactive: > 76.9 µM.

`CC(=O)NC1C(=O)SC1(C)C` (configuration not stated): the Potency is inactive: > 76.9 µM.

With `COc1ccc(C(=O)NCc2nnc(SCC(=O)N3CCC(C)CC3)o2)cc1OC`, the Potency was inactive: > 76.9 µM.

Consider `Cc1cc(C(=O)OCC(=O)N2CCc3ccccc32)c(C)o1`, for which the Potency is inactive: > 76.9 µM.

As for `CC(C)n1c(SCC(=O)N2CCCC2)nc2c1c(=O)n(C)c(=O)n2C`, the Potency was inactive: > 76.9 µM.

On to `CCOC(=O)C1CCN(C(=O)C2(NC(=O)Nc3ccccc3Cl)CCCCC2)CC1`, for which the Potency is inactive: > 76.9 µM.

Turning to `Cc1ccccc1OCc1nc(-c2ccc(NC(=O)c3ccc4c(c3)OCO4)cc2)no1`, the Potency is inactive: > 76.9 µM.

Regarding `COc1cc(CN2CCN(C(=O)CC(C)C)CC2)cc(OC)c1O`, the Potency was inactive: > 76.9 µM.

Consider `CC(C)c1nnc(N2C(=O)c3oc4ccccc4c(=O)c3C2c2ccco2)s1` (configuration not stated), for which the Potency was inactive: > 76.9 µM.

With `Cc1noc(C)c1COc1ccc(C(=O)OCC(=O)N2CC3(C)CC2CC(C)(C)C3)cc1` (configuration not stated), the Potency is inactive: > 76.9 µM.

Turning to `Cc1n[nH]c(C)c1S(=O)(=O)N1CCCC(C(=O)Nc2nccs2)C1` (configuration not stated), the Potency is inactive: > 76.9 µM.

Consider `CCOC(=O)c1ccc(COC(=O)CNC(=O)CNC(=O)c2ccc(OC)cc2)o1`, for which the Potency was inactive: > 76.9 µM.

Regarding `O=C(c1ccc(Cl)cc1)C1C2C(=O)N(c3ccccc3)C(=O)C2C2CCCN21` (configuration not stated), the Potency is inactive: > 76.9 µM.

As to `Cc1cccn2c(=O)c3cc(C(=O)N4CCc5ccccc5C4)n(C)c3nc12`, the Potency was inactive: > 76.9 µM.

Consider `O=C(C1COc2ccccc2O1)N1CCN(c2ccc(F)cc2)CC1` (configuration not stated), for which the Potency is inactive: > 76.9 µM.

As for `CCOC(=O)C1=C(C)NC(=O)NC1c1ccc(Cl)cc1Cl` (configuration not stated), the Potency was inactive: > 76.9 µM.

For the molecule `CCCNC(=O)c1cc(S(=O)(=O)N2CCc3ccccc32)ccc1F`, the Potency is inactive: > 76.9 µM.

Regarding `O=P(O)(CP(=O)(c1ccccc1)c1ccccc1)c1ccccc1`, the Potency is inactive: > 76.9 µM.

Turning to `O=C(Nc1ncnc2sc3c(c12)CCCCC3)c1ccco1`, the Potency is inactive: > 76.9 µM.

Turning to `CC1CCCN(C(=O)c2cc(F)c(F)cc2Cl)C1` (configuration not stated), the Potency was inactive: > 76.9 µM.

Consider `CN(CCNC(=O)C1CC(=O)N(c2ccc(F)c(Cl)c2)C1)Cc1ccccc1` (configuration not stated), for which the Potency is active: 15.4 µM.

As for `Cc1cc(C(=O)CSc2nnc(NCc3ccccc3)s2)c(C)n1C`, the Potency is inactive: > 76.9 µM.

Consider `CCN(c1ccccc1)S(=O)(=O)c1ccc(F)cc1`, for which the Potency was inactive: > 76.9 µM.

For `COc1cccc(C2=NOC(C(=O)NC(C)(C)C)C2)c1` (configuration not stated), the Potency is inactive: > 76.9 µM.

For `Cc1csc(NC(=O)C2CCCN2C(=O)OCC(C)C)n1` (configuration not stated), the Potency was inactive: > 76.9 µM.

Consider `CCN(CC)C(=O)c1n[nH]c(=O)c2ccccc12`, for which the Potency was inactive: > 76.9 µM.

As to `CCc1nc(C)ccc1OCC(=O)NCCCN(C)C`, the Potency is inactive: > 76.9 µM.

Take `COc1ccc(NC(=O)CSc2nnc(-c3cccs3)n2C)cc1OC`: the Potency was inactive: > 76.9 µM.

As for `O=C(CN1C(=O)c2cccc3cccc1c23)Nc1cccnc1`, the Potency is inactive: > 76.9 µM.

Turning to `Cc1nn(Cc2ccccc2)c(C)c1C(=O)Nc1ccc(N2CCOCC2)cc1`, the Potency was inactive: > 76.9 µM.

`COc1ccc(CCNS(=O)(=O)c2cccc(S(=O)(=O)N3CCCC3)c2)cc1OC`: the Potency was inactive: > 76.9 µM.

For `COc1ccc(N2C(=O)CSC2c2cccc(F)c2)c(OC)c1` (configuration not stated), the Potency is inactive: > 76.9 µM.

Turning to `COc1cccc(OC)c1OCC(O)CN1CCN(c2ccccc2)CC1` (configuration not stated), the Potency is inactive: > 76.9 µM.

On to `O=C(Nc1ccon1)c1ccccc1Cl`, for which the Potency was inactive: > 76.9 µM.

As for `CCOC(=O)CNS(=O)(=O)c1ccc(C(=O)O)cc1`, the Potency is inactive: > 76.9 µM.

Take `CC(C)(C)NC(=O)CN(C(=O)CCN1CCCc2ccccc21)C(C)(C)C`: the Potency was inactive: > 76.9 µM.

With `Cc1cc(SCC(=O)N2CCC(c3noc4ccc(F)cc34)CC2)nc2ccccc12`, the Potency was inactive: > 76.9 µM.

Consider `O=C(CN(C(=O)CSc1nnc(COc2ccccc2)o1)c1ccc(F)cc1)NC1CCCCC1`, for which the Potency is inactive: > 76.9 µM.

Consider `Fc1cccc2sc(N3CCCCC3)nc12`, for which the Potency was inactive: > 76.9 µM.

For `COc1ccc(-c2nnc(CSc3ncnc4sc5c(c34)CCC5)o2)cc1OC`, the Potency is inactive: > 76.9 µM.

Consider `N#Cc1nc(-c2cccs2)oc1NCC1CCCO1` (configuration not stated), for which the Potency is inactive: > 76.9 µM.

Turning to `COC(=O)C1C2C=CC3(CN(CCc4ccccc4)C(=O)C13)O2` (configuration not stated), the Potency was inactive: > 76.9 µM.

As for `CCOc1ccc(OCC)c(NC(=O)C(NS(=O)(=O)c2ccc3c(c2)oc(=O)n3C)C(C)C)c1` (configuration not stated), the Potency was inactive: > 76.9 µM.

`CCn1cc(S(=O)(=O)CC(=O)NC2CCCCC2)c2ccccc21`: the Potency is inactive: > 76.9 µM.

In the case of `Cc1ccc(C)c(C(=O)CSc2n[nH]c(C(C)C)n2)c1`, the Potency is inactive: > 76.9 µM.

In the case of `CCSc1nnc(NC(=O)C(CC)Oc2ccccc2)s1` (configuration not stated), the Potency is inactive: > 76.9 µM.

On to `COc1cccc(C2C(C#N)=C(N)Oc3cc(C)n(Cc4ccco4)c(=O)c32)c1` (configuration not stated), for which the Potency is inactive: > 76.9 µM.

`O=C(O)c1cc(S(=O)(=O)NCC2CCCO2)ccc1Cl` (configuration not stated): the Potency is inactive: > 76.9 µM.

Turning to `CCc1ccc(CNC(=O)CN2C(=O)COc3ccccc32)cc1`, the Potency was inactive: > 76.9 µM.

Take `O=C(Nc1nc2ccc(S(=O)(=O)N3CCCC3)cc2s1)C1CCCO1` (configuration not stated): the Potency was inactive: > 76.9 µM.

Regarding `COCCn1nnnc1C(c1ccccc1OC)N1CCc2ccccc2C1` (configuration not stated), the Potency was inactive: > 76.9 µM.

For `COc1ccc(C(=O)NC(=O)N2CCCCC2)cc1`, the Potency is inactive: > 76.9 µM.

As to `O=S(=O)(c1cccc(-c2csc(-c3cccnc3)n2)c1)N1CCCCC1`, the Potency is inactive: > 76.9 µM.

For the molecule `COCCn1nnnc1CN(Cc1cccnc1)Cc1cc2cc(OC)ccc2[nH]c1=O`, the Potency was inactive: > 76.9 µM.

On to `COc1ccc(C2CCCN2C(=O)Nc2cccc(C(C)=O)c2)cc1OC` (configuration not stated), for which the Potency was inactive: > 76.9 µM.

Take `C=C(C)CC1Nc2ccccc2NC1CC(=C)C` (configuration not stated): the Potency was inactive: > 76.9 µM.

`COc1ccc(CC(=O)Nc2cc(Cl)ccc2O)cc1`: the Potency was inactive: > 76.9 µM.

Turning to `O=C(c1cccc(Cl)c1)N1CCN(Cc2ccccc2F)CC1`, the Potency was inactive: > 76.9 µM.

Regarding `O=C1c2cccnc2C(=O)N1c1ccccc1-c1ccccc1`, the Potency was inactive: > 76.9 µM.

For the molecule `CCCCc1ccc(NC(=O)N[C@H](C(=O)O)C(C)C)cc1`, the Potency was inactive: > 76.9 µM.

Regarding `O=C(CCc1ccccc1)Nc1ccc(NC(=O)C2CC2)nc1`, the Potency was inactive: > 76.9 µM.

On to `CS(=O)(=O)N(CC(=O)O)c1ccc(Oc2ccccc2)cc1`, for which the Potency is inactive: > 76.9 µM.

For the molecule `O=C(CCS(=O)(=O)c1ccc(Br)cc1)NCc1cccs1`, the Potency is inactive: > 76.9 µM.

With `COc1cc(-c2cccs2)cc(=O)c2c(C)oc(C)c12`, the Potency was inactive: > 76.9 µM.

With `Oc1oc(-c2ccco2)nc1C=Nc1ccccc1`, the Potency is inactive: > 76.9 µM.

As to `Cc1nc(SCC(=O)CC(=O)OC(C)C)c(C#N)c(C)c1C`, the Potency entry was “inactive”.

As to `CCOC(=O)c1[nH]nc2c1C(=O)N(Cc1ccccc1)C2=O`, the Potency was inactive: > 76.9 µM.

In the case of `Cc1cc(C(F)F)n2nc(C(=O)Nc3c(F)cc(F)cc3Br)nc2n1`, the Potency is inactive: > 76.9 µM.

As for `CCn1nc(C(=O)OCc2c(C)noc2C)c2ccccc2c1=O`, the Potency was inactive: > 76.9 µM.

`O=S(=O)(NC1CC1)c1ccc(S(=O)(=O)N2CCCc3ccccc32)cc1`: the Potency entry was “inactive”.

On to `CC1CCCCN1C(=O)CSc1nnc(-c2ccc(Cl)s2)o1` (configuration not stated), for which the Potency is inactive: > 76.9 µM.

Turning to `COCCOCC(O)CN1CCN(c2ccccc2)CC1` (configuration not stated), the Potency was inactive: > 76.9 µM.

Consider `Cc1c(C(=O)NCCCN2CCCC2=O)oc2ccc(S(=O)(=O)N3CCOCC3)cc12`, for which the Potency is inactive: > 76.9 µM.

Turning to `Cc1ccccc1-c1nnc(SCC(=O)NC2CCCCC2)o1`, the Potency is inactive: > 76.9 µM.

As for `Cc1cccn2cc(CNc3ccccc3)nc12`, the Potency is inactive: > 76.9 µM.

In the case of `Cc1ccc(CN(Cc2cc3cc(C)ccc3[nH]c2=O)C(=O)N2CCOCC2)cc1`, the Potency is inactive: > 76.9 µM.

In the case of `COc1ccccc1NC(=O)c1cc(S(=O)(=O)N2CCOCC2)ccc1Cl`, the Potency is inactive: > 76.9 µM.

Regarding `O=C(COC(=O)CN1C(=O)C2CC=CCC2C1=O)Nc1cc(C(F)(F)F)ccc1N1CCOCC1` (configuration not stated), the Potency is inactive: > 76.9 µM.

As to `O=C(CSc1nc2ccccc2c(=O)n1-c1ccc(Cl)cc1)c1ccco1`, the Potency was inactive: > 76.9 µM.
